Whole data set: some 81,000 sequences, median “one-hybrid fitness for binding parS DNA” near -0.17, cut for the highest 2% near 0.51. This is one part of the list.
B1: Caulobacter ParB omega fusion; a variant is named by its letters at X, in order, B8GW30 (parent)
chain: MESVVVGEPGMSEGRRGLGRGLSALLGEVDAAPAQAPGEQLGGSREAPIEILQRNPDQPRRTFREEDLEDLSNSIREKGVLQPILVRPSPDTAGEYQIVAGERAWRAAQRAGLKTVPIMVRELDDLAVLEIGIIENVQRADLNVLEEALSYKVLMEKFERTQENIAQTIGKSXSHVANXMRLLXLPDEVQSYLVSGELTAXHARAIAAAADPVALAKQIIEGGLSVRETEALARKAPNLSAGKSKGGRPPRVKDTDTQALESDLSSVLGLDVSIDHRGSTGTLTITYATLEQLDDLCNRLTRGI

Variants of: B1
Test: one-hybrid fitness for binding parS DNA (scaled: cognate 1, non-cognate 0); higher = stronger binding
Conditions: with parS DNA site
In short: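 Bacterial one-hybrid selection in E. coli USO rpoZ- hisB- pyrF- with a HIS3 reporter carrying the site 19 bp from the promoter, screening Caulobacter ParB libraries with four specificity codons randomised (NNS). Cells grew 48 hours at 37°C on M9-minus-histidine plus 0.1 mM IPTG and 5 mM 3-AT. Plasmids before and after selection were Illumina-sequenced, three replicate libraries pooled, and variants under 10 reads dropped. Fitness is the log change in variant-to-wild-type read ratio, rescaled to cognate 1, non-cognate 0.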
In the case of DFST, the “one-hybrid fitness for binding parS DNA” value is reported as ≤ 0.2. For FRHG, the “one-hybrid fitness for binding parS DNA” value was ≤ 0.2. TARN was tested, and the “one-hybrid fitness for binding parS DNA” value was ≤ 0.2. In the case of ASEK, the “one-hybrid fitness for binding parS DNA” value is reported as ≤ 0.2. With QHFL the “one-hybrid fitness for binding parS DNA” value was ≤ 0.2. SYNS was tested, and the “one-hybrid fitness for binding parS DNA” value was ≤ 0.2. With HEKH the “one-hybrid fitness for binding parS DNA” value was ≤ 0.2. CKNG was tested, and the “one-hybrid fitness for binding parS DNA” value was ≤ 0.2. With YINY the “one-hybrid fitness for binding parS DNA” value was ≤ 0.2. With QWLC the “one-hybrid fitness for binding parS DNA” value was ≤ 0.2. For QAIE, the “one-hybrid fitness for binding parS DNA” value was ≤ 0.2. For HIGN, the “one-hybrid fitness for binding parS DNA” value was ≤ 0.2. VVNY was tested, and the “one-hybrid fitness for binding parS DNA” value was ≤ 0.2. SNWV was tested, and the “one-hybrid fitness for binding parS DNA” value was ≤ 0.2. In the case of EYAT, the “one-hybrid fitness for binding parS DNA” value is reported as ≤ 0.2. For PTKG, the “one-hybrid fitness for binding parS DNA” value was ≤ 0.2. For LLKV, the “one-hybrid fitness for binding parS DNA” value was ≤ 0.2. For QHTS, the “one-hybrid fitness for binding parS DNA” value was ≤ 0.2. LCTF was tested, and the “one-hybrid fitness for binding parS DNA” value was ≤ 0.2. With TTGP the “one-hybrid fitness for binding parS DNA” value was ≤ 0.2. With QEIR the “one-hybrid fitness for binding parS DNA” value was ≤ 0.2. With AITG the “one-hybrid fitness for binding parS DNA” value was ≤ 0.2. For EHAM, the “one-hybrid fitness for binding parS DNA” value was ≤ 0.2. In the case of VHLT, the “one-hybrid fitness for binding parS DNA” value is reported as ≤ 0.2. With LMNT the “one-hybrid fitness for binding parS DNA” value was ≤ 0.2. With TLWI the “one-hybrid fitness for binding parS DNA” value was ≤ 0.2. In the case of DYRV, the “one-hybrid fitness for binding parS DNA” value is reported as ≤ 0.2. For HHYG, the “one-hybrid fitness for binding parS DNA” value was ≤ 0.2. For HMWA, the “one-hybrid fitness for binding parS DNA” value was ≤ 0.2. GRWC was tested, and the “one-hybrid fitness for binding parS DNA” value was ≤ 0.2. With EARA the “one-hybrid fitness for binding parS DNA” value was ≤ 0.2. With VAMK the “one-hybrid fitness for binding parS DNA” value was ≤ 0.2. In the case of CMTR, the “one-hybrid fitness for binding parS DNA” value is reported as ≤ 0.2. For GEAD, the “one-hybrid fitness for binding parS DNA” value was ≤ 0.2. In the case of RIDA, the “one-hybrid fitness for binding parS DNA” value is reported as 0.55. For RDEC, the “one-hybrid fitness for binding parS DNA” value was ≤ 0.2. For ARLK, the “one-hybrid fitness for binding parS DNA” value was ≤ 0.2. For HSYT, the “one-hybrid fitness for binding parS DNA” value was ≤ 0.2. With QLAP the “one-hybrid fitness for binding parS DNA” value was ≤ 0.2. In the case of RRCS, the “one-hybrid fitness for binding parS DNA” value is reported as 0.67. For QYAN, the “one-hybrid fitness for binding parS DNA” value was ≤ 0.2. For IYDG, the “one-hybrid fitness for binding parS DNA” value was ≤ 0.2. In the case of RKLA, the “one-hybrid fitness for binding parS DNA” value is reported as 0.547. APSP was tested, and the “one-hybrid fitness for binding parS DNA” value was ≤ 0.2. KVVD was tested, and the “one-hybrid fitness for binding parS DNA” value was ≤ 0.2. With YNAG the “one-hybrid fitness for binding parS DNA” value was ≤ 0.2. With KCNG the “one-hybrid fitness for binding parS DNA” value was ≤ 0.2. With DHTD the “one-hybrid fitness for binding parS DNA” value was ≤ 0.2. With ACNG the “one-hybrid fitness for binding parS DNA” value was ≤ 0.2. DDQC was tested, and the “one-hybrid fitness for binding parS DNA” value was ≤ 0.2. For RNEF, the “one-hybrid fitness for binding parS DNA” value was ≤ 0.2. In the case of RTFM, the “one-hybrid fitness for binding parS DNA” value is reported as 0.334. CCAC was tested, and the “one-hybrid fitness for binding parS DNA” value was ≤ 0.2. In the case of YRHS, the “one-hybrid fitness for binding parS DNA” value is reported as 0.228. For ADQT, the “one-hybrid fitness for binding parS DNA” value was ≤ 0.2. In the case of GCND, the “one-hybrid fitness for binding parS DNA” value is reported as ≤ 0.2. In the case of RKQI, the “one-hybrid fitness for binding parS DNA” value is reported as ≤ 0.2. For MKGT, the “one-hybrid fitness for binding parS DNA” value was ≤ 0.2. In the case of DRTC, the “one-hybrid fitness for binding parS DNA” value is reported as ≤ 0.2. With ATLV the “one-hybrid fitness for binding parS DNA” value was ≤ 0.2. With TNLV the “one-hybrid fitness for binding parS DNA” value was ≤ 0.2. For MNFG, the “one-hybrid fitness for binding parS DNA” value was ≤ 0.2. For VARY, the “one-hybrid fitness for binding parS DNA” value was ≤ 0.2. For RIDV, the “one-hybrid fitness for binding parS DNA” value was ≤ 0.2. For TSIT, the “one-hybrid fitness for binding parS DNA” value was ≤ 0.2. For EEKC, the “one-hybrid fitness for binding parS DNA” value was ≤ 0.2. For WTKH, the “one-hybrid fitness for binding parS DNA” value was ≤ 0.2. For PALY, the “one-hybrid fitness for binding parS DNA” value was ≤ 0.2. With RITG the “one-hybrid fitness for binding parS DNA” value was 0.997. NTGV was tested, and the “one-hybrid fitness for binding parS DNA” value was ≤ 0.2. KRQY was tested, and the “one-hybrid fitness for binding parS DNA” value was ≤ 0.2. SADP was tested, and the “one-hybrid fitness for binding parS DNA” value was ≤ 0.2. For MAAN, the “one-hybrid fitness for binding parS DNA” value was ≤ 0.2. In the case of GDAA, the “one-hybrid fitness for binding parS DNA” value is reported as ≤ 0.2. With KHVT the “one-hybrid fitness for binding parS DNA” value was ≤ 0.2. With HSLY the “one-hybrid fitness for binding parS DNA” value was ≤ 0.2. For RKYA, the “one-hybrid fitness for binding parS DNA” value was 0.579. For VPTS, the “one-hybrid fitness for binding parS DNA” value was ≤ 0.2. In the case of PENV, the “one-hybrid fitness for binding parS DNA” value is reported as ≤ 0.2. For ITLA, the “one-hybrid fitness for binding parS DNA” value was ≤ 0.2. In the case of SMRI, the “one-hybrid fitness for binding parS DNA” value is reported as ≤ 0.2. YTPN was tested, and the “one-hybrid fitness for binding parS DNA” value was ≤ 0.2. In the case of THGW, the “one-hybrid fitness for binding parS DNA” value is reported as ≤ 0.2. NEVL was tested, and the “one-hybrid fitness for binding parS DNA” value was ≤ 0.2. For FADG, the “one-hybrid fitness for binding parS DNA” value was ≤ 0.2. For KTWR, the “one-hybrid fitness for binding parS DNA” value was ≤ 0.2. For STVK, the “one-hybrid fitness for binding parS DNA” value was ≤ 0.2. With QYSY the “one-hybrid fitness for binding parS DNA” value was ≤ 0.2. APTE was tested, and the “one-hybrid fitness for binding parS DNA” value was ≤ 0.2. In the case of WAHT, the “one-hybrid fitness for binding parS DNA” value is reported as ≤ 0.2. In the case of ARKT, the “one-hybrid fitness for binding parS DNA” value is reported as ≤ 0.2. For KRRI, the “one-hybrid fitness for binding parS DNA” value was ≤ 0.2. With YITM the “one-hybrid fitness for binding parS DNA” value was ≤ 0.2. For PPTQ, the “one-hybrid fitness for binding parS DNA” value was ≤ 0.2. For CPAW, the “one-hybrid fitness for binding parS DNA” value was ≤ 0.2. With GPKW the “one-hybrid fitness for binding parS DNA” value was ≤ 0.2. For RYMM, the “one-hybrid fitness for binding parS DNA” value was 0.287.
